Laboratory results from PubChem BioAssay AID2675 (National Center for Advancing Translational Sciences (NCATS), 2010).
The campaign covered roughly 280,000 compounds. About 100 (0.036%) were called active. Inconclusive means that the source gave no clear call. Such entries were picked first, then a sample of the others. Calls come from the whole dose curve; as a rule, active = well fitted inhibition curve with a large enough effect in the signal ratio, with a control signal flat (not every such curve was filed as active); inconclusive = small, poorly fitted or top-dose-only effect, or effect the other way, or a change in a side signal; inactive = no such curve, though single readings can be large or run the other way; the % refers to the signal ratio. Where the call is inconclusive, the potency comes from a doubtful curve fit. A note “side channel” means that the fit belongs to a control or component signal, not to the main read-out.

Each molecule was assayed against Muscleblind-like protein 1 (Homo sapiens) (UniProt Q9NR56) (assay: qHTS Assay for Inhibitors of MBNL1-poly(CUG) RNA binding). Details: TR-FRET MBNL1-His/biotin-(CUG)12 binding, 665/545 ratio; activity change, negative = inhibition: at 57.5 µM (top of the series).
Sequence of UniProt Q9NR56 (Q9NR56 whole entry, looked up): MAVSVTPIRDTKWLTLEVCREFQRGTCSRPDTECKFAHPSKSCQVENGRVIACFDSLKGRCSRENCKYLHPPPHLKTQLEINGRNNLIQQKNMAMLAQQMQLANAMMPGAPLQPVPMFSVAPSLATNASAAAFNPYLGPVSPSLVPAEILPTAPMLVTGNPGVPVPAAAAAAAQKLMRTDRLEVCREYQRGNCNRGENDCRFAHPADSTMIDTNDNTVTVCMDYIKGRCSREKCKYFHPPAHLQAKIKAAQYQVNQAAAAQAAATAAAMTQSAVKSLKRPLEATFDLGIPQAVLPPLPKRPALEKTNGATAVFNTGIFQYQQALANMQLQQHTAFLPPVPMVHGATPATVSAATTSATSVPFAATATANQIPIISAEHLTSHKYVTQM
In short: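 Ratiometric TR-FRET (665 over 545 nm, excitation 340 nm) tracks disruption of MBNL1-His/biotin-(CUG)12 complex after 60 min at room temperature, with compounds at 92 nM to 58 uM final.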
% is set by controls: 0 for no effect and ±100 for the full control effect; potency is the fitted concentration of half-maximal effect; tags give direction and shape of the fitted curve or compound fluorescence and quenching.

SMILES | Potency | activity change, negative = inhibition
Cc1ccc(/C=N/n2c(COc3ccccc3)n[nH]c2=S)o1 | inconclusive: 31.6 µM [quencher, side channel, partial curve] | 
Cc1ccc(-c2cc3cccc[n+]3cc2-c2ccc(C)cc2)cc1 | inconclusive: 15.8 µM [quencher, side channel, partial curve] | 
Cc1cccn2c(=O)c3cc(C(=O)NCCCn4ccnc4)n(C)c3nc12 | inconclusive: 31.6 µM [quencher, side channel, partial curve] | 
Cc1cc(C(=O)OCCN2C(=O)c3ccccc3C2=O)c2ccccc2n1 | inconclusive: 22.4 µM [quencher, side channel, single point] | 
Cn1nnnc1-c1cc(Br)ccc1NC(=O)c1ccccc1 | inconclusive: 39.8 µM [fluorescent, single point] | 
CC(C)(C)NC(=O)/C(=C\C=C\c1ccccc1)NC(=O)c1ccc([N+](=O)[O-])cc1 | inconclusive: 5.62 µM [quencher, side channel, partial curve] | 
COc1ccc2[nH]c3c(=O)n4c(nc3c2c1)SCCC4 | inconclusive: 28.2 µM [quencher, side channel, single point] | 
O=C(CN1CCOCC1)Nc1ccc([N+](=O)[O-])cc1 | inconclusive: 31.6 µM [quencher, side channel, single point] | 
c1ccc2c(c1)C(=Nn1cnnc1)c1ccccc1-2 | inconclusive: 15.8 µM [quencher, side channel, partial curve] | 
CCn1c(SCC(=O)Nc2nc(-c3ccccc3)cs2)nnc1-c1ccccc1O |  | inactive: -7.29%
Cc1ccc2c(c1C)NC(=O)CC(c1ccccc1O)=N2 | inconclusive: 1.12 µM [fluorescent, side channel, full curve] | 
COc1cnn(-c2ccc(C)cc2)c(=O)c1SCc1ccccc1 | inconclusive: 28.2 µM [quencher, side channel, single point] | 
O=C(CCN1C(=O)c2ccccc2C1=O)C1=NN[C@@H]2C(=O)N(c3ccc4c(c3)OCCO4)C(=O)[C@H]12 | inconclusive: 14.1 µM [quencher, side channel, partial curve] | 
CCOC(=O)N1CCN(C(=O)c2cc3c(ccc4ccccc43)oc2=O)CC1 | inconclusive: 12.6 µM [quencher, side channel, partial curve] | 
COc1ccc(-c2oc3cc(OC)c(O)c(OC)c3c(=O)c2OC)cc1O | inconclusive: 14.1 µM [quencher, side channel, partial curve] | 
Cc1ccccc1Cn1nc(C)c(NC(=O)c2noc3c2CCc2ccccc2-3)c1C | inconclusive: 35.5 µM [quencher, side channel, partial curve] | 
Nc1ccccc1-c1nnc(SCc2ccccc2F)[nH]c1=O | inconclusive: 14.1 µM [quencher, side channel, partial curve] | 
Cc1ccn(Cc2n[nH]c(=S)n2Cc2ccccc2)n1 |  | inactive: -0.784%
C=CCn1c(SCC(=O)NC(=O)c2cccn2C)nc2ccccc2c1=O |  | inactive: 16.4%
COc1cccc(C2CC(c3ccc(F)cc3)Nc3nc(N)nn32)c1 (centres undefined) | inconclusive: 39.8 µM [quencher, side channel, single point] | 

SMILES | Potency | activity change, negative = inhibition
Cc1ccc2c(c1)COc1c3ccc(C(=O)NCC4CC4)cc3nn1-2 | inconclusive: 20 µM [quencher, side channel, partial curve] | 
COc1ccc2[nH]c(=O)c(CN(C3CCCCC3)C(c3nnnn3Cc3ccco3)C(C)C)cc2c1 (centres undefined) | inconclusive: 39.8 µM [quencher, side channel, single point] | 
O=S(=O)(Nc1ccc(Cl)cn1)c1ccc(Cl)cc1 |  | inactive: -9%
c1ccc(-c2nc3ccccn3c2NC2CCCC2)nc1 |  | inactive: 12%
O=C(CNC(=O)c1ccc(Cl)c([N+](=O)[O-])c1)NCC1CCCO1 (centres undefined) | inconclusive: 12.6 µM [quencher, side channel, partial curve] | 
O=C(N/N=C/c1ccc([N+](=O)[O-])o1)C1CC1 | inconclusive: 12.6 µM [quencher, partial curve] | 
CCCCNC(=O)CCCCCn1c(=O)[nH]c2cc(OC)c(OC)cc2c1=O |  | inactive: -10.7%
COc1ccc(CN=Cc2c(C(F)(F)F)[nH][nH]c2=O)cc1 |  | inactive: 3.78%
COc1ccc(/C=C2\SC(=O)N(CCC(=O)NC3CCS(=O)(=O)C3)C2=O)cc1 (centres undefined) | inconclusive: 3.55 µM [quencher, side channel, full curve] | 
COc1ccc([N+](=O)[O-])cc1C(=O)Nc1ccc(OCC(=O)N2CCOCC2)cc1 | inconclusive: 39.8 µM [quencher, partial curve] | 
CCC(/C=C1\Sc2ccc(OC)cc2N1CC)=C\c1sc2ccc(OC)cc2[n+]1CCCS(=O)(=O)[O-] | inconclusive: 6.31 µM [quencher, side channel, partial curve] | 
O=C(Cc1sc(Nc2ccccc2)nc1-c1ccccc1)NCc1ccccc1 | inconclusive: 0.112 µM [fluorescent, side channel, full curve, poor fit] | 
COc1ccc(O)c(C(=O)c2cc(C#N)c(=O)n(CC3CCCO3)c2)c1 (centres undefined) | inconclusive: 22.4 µM [quencher, side channel, single point] | 
CCN(CC)CCCNC(CC(=O)Nc1cccc([N+](=O)[O-])c1)C(=O)O (centres undefined) | inconclusive: 20 µM [quencher, side channel, partial curve] | 
COc1cc([N+](=O)[O-])cc([N+](=O)[O-])c1NC(=O)N1CCOCC1 | inconclusive: 12.6 µM [quencher, side channel, partial curve] | 
Cc1ccc(-n2[nH]c(C)c(/C=N/c3ccccn3)c2=O)cc1 | inconclusive: 39.8 µM [quencher, side channel, single point] | 
Cc1ccc(/C=C(\C#N)C(=O)NC(C)C)o1 | inconclusive: 20 µM [quencher, side channel, partial curve] | 
Cc1sc2nc(CN(C(=O)NC3CCCCC3)C3CCCCC3)[nH]c(=O)c2c1C | inconclusive: 63.1 µM [inhibitor, single point] | 
COc1ccc(/C=C2/C(=O)N(c3nc4ccccc4s3)N=C2CSc2ccc(Cl)cc2)cc1 | inconclusive: 0.112 µM [fluorescent, side channel, full curve] | 
CCCC(=O)NC(=S)Nc1ccccc1C(=O)OC |  | inactive: -8.64%

SMILES | Potency | activity change, negative = inhibition
CC1=Nc2cc(C(=O)O)ccc2Sc2c(C)ccc(C)c21 |  | inactive: -7.16%
Cc1nc2ccc(NC(=S)N3CCC(C)CC3)cc2nc1C | inconclusive: 25.1 µM [quencher, side channel, single point] | 
COc1ccc(-n2c(SCC(=O)Nc3nccs3)nc3sc4c(c3c2=O)CCN(C)C4)cc1 | inconclusive: 31.6 µM [quencher, side channel, single point] | 
Cc1nn(C(=O)c2c([N+](=O)[O-])cnn2C)c(C)c1Cl | inconclusive: 5.01 µM [quencher, side channel, single point] | 
COc1cc(NC(=O)c2cccc(C)c2)c(Cl)cc1[N+](=O)[O-] | inconclusive: 1.58 µM [quencher, side channel, partial curve] | 
COc1cc(C2Nc3ccc4ncccc4c3C3=C2C(=O)CCC3)cc(OC)c1O (centres undefined) | inconclusive: 25.1 µM [quencher, side channel, partial curve] | 
Nc1c(C(=O)N2CCOCC2)sc(=S)n1-c1ccccc1 | inconclusive: 25.1 µM [quencher, side channel, partial curve] | 
COc1ccc(Cn2c(-c3ccccc3)nc3c(c(=O)c4ccccc4n3C)c2=O)cc1 | inconclusive: 0.112 µM [fluorescent, side channel, full curve] | 
CCOC(=O)c1cc(-c2ccc(/C=C3/C(=O)NC(=O)C(C#N)=C3C)o2)ccc1Cl | inconclusive: 17.8 µM [quencher, side channel, partial curve] | 
CC(C)NC(=S)N/N=C/c1ccc(N2CCOCC2)cc1 | inconclusive: 39.8 µM [quencher, side channel, partial curve, poor fit] | 
O=C(N/N=C/c1ccco1)c1cc(-c2ccccc2)nc2ccccc12 | inconclusive: 25.1 µM [quencher, side channel, partial curve] | 
CCOC(=O)c1sc(=S)n(-c2ccccc2OC)c1N | inconclusive: 25.1 µM [quencher, side channel, partial curve] | 
Cc1cccc(NC(=O)CCNC(=O)c2ccco2)c1 | inconclusive: 0.0891 µM [fluorescent, side channel, full curve] | 
CC(=O)Nc1ccc(S(=O)(=O)Nc2cccc(-c3cn4cccnc4n3)c2)cc1 | inconclusive: 22.4 µM [quencher, side channel, partial curve] | 
C=C(C)C(=O)OCCCCCCOc1ccc(C(=O)O)cc1 | inconclusive: 0.708 µM [quencher, side channel, partial curve, poor fit] | 
CC1=NN(C(N)=S)C(=O)C1N=Nc1ccc(F)cc1 (centres undefined) | inconclusive: 14.1 µM [quencher, side channel, partial curve] | 
COc1ccc(Br)cc1-c1noc(-c2ccccc2F)n1 |  | inactive: 1%
O=C(CNS(=O)(=O)c1ccccc1)NCC(=O)OCc1ccc(Cl)cc1 |  | inactive: -19.1%
CCN(CC)S(=O)(=O)c1cccc(C(=O)N/N=C/c2ccc(N3CCOCC3)cc2)c1 | inconclusive: 31.6 µM [quencher, side channel, single point] | 
